{"source": "paper PMC6919601", "about": "“Identification of Plasmodium dipeptidyl aminopeptidase allosteric inhibitors by high throughput screening” (PLoS ONE, 2019)", "note": "Out of some 110,000 compounds screened, about 230 (0.21%) showed an effect of 50% or more. The list shows a part of the results.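 Further: 30 min substrate incubation versus DMSO and 10 µM JCP410 controls.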", "data": [{"molecular_target": "DPAP1 (Plasmodium falciparum, UniProt Q8IIJ9)", "sequence (Q8IIJ9 whole entry, looked up)": "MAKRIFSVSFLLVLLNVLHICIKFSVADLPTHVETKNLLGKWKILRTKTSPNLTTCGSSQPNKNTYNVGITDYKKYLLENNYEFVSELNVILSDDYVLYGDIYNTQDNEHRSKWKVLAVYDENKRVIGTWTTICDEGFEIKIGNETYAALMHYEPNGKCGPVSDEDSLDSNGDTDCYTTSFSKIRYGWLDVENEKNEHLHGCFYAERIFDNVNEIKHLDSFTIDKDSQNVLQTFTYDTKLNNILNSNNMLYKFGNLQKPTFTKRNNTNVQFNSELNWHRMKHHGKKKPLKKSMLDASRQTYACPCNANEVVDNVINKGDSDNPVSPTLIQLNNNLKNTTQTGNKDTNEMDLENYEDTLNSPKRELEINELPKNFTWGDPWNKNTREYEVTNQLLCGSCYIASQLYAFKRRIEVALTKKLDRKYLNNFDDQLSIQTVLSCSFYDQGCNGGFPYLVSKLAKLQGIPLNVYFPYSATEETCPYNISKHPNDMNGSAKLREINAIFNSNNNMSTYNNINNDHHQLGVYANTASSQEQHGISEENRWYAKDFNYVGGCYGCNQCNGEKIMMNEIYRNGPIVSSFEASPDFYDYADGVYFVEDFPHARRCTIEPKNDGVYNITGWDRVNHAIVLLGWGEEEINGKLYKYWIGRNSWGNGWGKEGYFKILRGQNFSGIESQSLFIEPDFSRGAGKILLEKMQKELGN", "test": "primary screen, percent inhibition; read by cleavage of a fluorogenic dipeptide substrate; higher = more effect of the substance", "design": "species or system P. falciparum D10 trophozoite lysates; single well", "units": {"% Inhibition @ 10 uM": "%"}, "values": [{"smiles": "CC(C)C(=O)N[C@@H](CC1CCCCC1)C(=O)NCC#N", "% Inhibition @ 10 uM": -0.214}, {"smiles": "O=C(Nc1ccc(Cl)c(Cl)c1)C1CCN(C(=O)c2ccccc2)CC1", "% Inhibition @ 10 uM": -1.17}, {"smiles": "Cn1ncc(Cl)c1C(=O)Nc1ccn(Cc2ccccc2)n1", "% Inhibition @ 10 uM": 5.54}, {"smiles": "Cc1ccc2nc3c(cc(C(=O)NCc4cccnc4)c(=N)n3CCc3ccccc3)c(=O)n2c1", "% Inhibition @ 10 uM": -5.14}, {"smiles": "COc1ccc(Sc2ccc(C=C3C(=O)N(C)C(=O)N(C)C3=O)o2)cc1", "% Inhibition @ 10 uM": -1.7}, {"smiles": "CC1(C)CC2=Nc3ncnn3C(c3ccc(Cl)cc3)C2=C(O)C1", "note": "(stereo not shown)", "% Inhibition @ 10 uM": -3.16}, {"smiles": "O=S(=O)(c1ccc(F)cc1)N1CCCc2ccccc21", "% Inhibition @ 10 uM": -2.12}, {"smiles": "O=S(=O)(NCCc1ccccc1)c1ccc(Cl)cc1", "% Inhibition @ 10 uM": -4.08}, {"smiles": "COc1ccc(-c2noc(CCCC(=O)NC(C)(C)C)n2)cc1", "% Inhibition @ 10 uM": 0.347}, {"smiles": "CC1CC(C)CN(c2c(-c3ccc(C(C)C)cc3)c(=O)c2=O)C1", "note": "(stereo not shown)", "% Inhibition @ 10 uM": 3.84}, {"smiles": "OCC1CCCCN1Cc1ccoc1", "note": "(stereo not shown)", "% Inhibition @ 10 uM": -0.636}, {"smiles": "CC(C)CCn1cnc2c(oc3ccccc32)c1=O", "% Inhibition @ 10 uM": -3.57}, {"smiles": "CS(=O)(=O)N(CC(=O)NCCc1ccccc1)c1ccc(Cl)c(Cl)c1", "% Inhibition @ 10 uM": -0.992}, {"smiles": "Cc1ccc(CNC(=O)C2CC(=O)N(c3ccc(OCC(=O)N4CCCC4)cc3)C2)cc1", "note": "(stereo not shown)", "% Inhibition @ 10 uM": -2.75}, {"smiles": "Cc1cc(N2CCC(C(=O)NCc3ccccc3)CC2)n2nc(C)c(-c3ccc(Cl)cc3)c2n1", "% Inhibition @ 10 uM": -1.89}, {"smiles": "COc1ccc(CN2CCN(Cc3ccc(OC)c(OC)c3OC)CC2)cc1", "% Inhibition @ 10 uM": -7.9}, {"smiles": "COc1ccc(/C=C2\\Cc3ccccc3C2=O)cc1Cn1cccn1", "% Inhibition @ 10 uM": -2.12}, {"smiles": "COc1ccc(C(=O)NC2CCC(NC(=O)c3ccc(OC)cc3)CC2)cc1", "note": "(stereo not shown)", "% Inhibition @ 10 uM": 2.46}, {"smiles": "Nc1c2c(nc3ccccc13)CCN(Cc1ccccc1)C2", "% Inhibition @ 10 uM": -0.0678}, {"smiles": "Cc1cccc(C(=N)NOC(=O)COc2ccccc2C)c1", "% Inhibition @ 10 uM": -11.2}, {"smiles": "COC(=O)C1=CN(C(C)C)C=C(C(=O)OC)C1c1cc2c(cc1Br)OCO2", "% Inhibition @ 10 uM": 1.86}, {"smiles": "CCOC(=O)N1CCN(C(=O)Cn2ncc3ccsc3c2=O)CC1", "% Inhibition @ 10 uM": -6.52}, {"smiles": "O=C(O)/C=C\\C(=O)N1CCN(c2nc(-c3ccccc3)c3cc(Br)ccc3n2)CC1", "% Inhibition @ 10 uM": -2.87}, {"smiles": "CCN(CC)C(=O)c1c(NC(=O)c2ccco2)sc2c1CCC(C)C2", "note": "(stereo not shown)", "% Inhibition @ 10 uM": -3.9}, {"smiles": "CCC1CCC(NCCN(C)C)CC1", "note": "(stereo not shown)", "% Inhibition @ 10 uM": -3.42}, {"smiles": "CCc1c(C)c2cc3c(c(C)c2oc1=O)OCN(Cc1ccc2c(c1)OCO2)C3", "% Inhibition @ 10 uM": 0.895}, {"smiles": "NC(=O)c1ccc(NC(=O)C2CC=CCC2C(=O)O)cc1", "note": "(stereo not shown)", "% Inhibition @ 10 uM": -3.92}, {"smiles": "O=C(N1CCOCC1)C1(c2ccccc2)CCCC1", "% Inhibition @ 10 uM": -3.09}, {"smiles": "C=CCOc1ccc(C(=O)C2=C(O)C(=O)N(CCCN3CCOCC3)C2c2ccccc2F)cc1C", "note": "(stereo not shown)", "% Inhibition @ 10 uM": -1.93}, {"smiles": "NC(=O)c1ccc(NC(=O)CN(Cc2ccc(Cl)c(Cl)c2)S(=O)(=O)c2ccccc2)cc1", "% Inhibition @ 10 uM": 7.97}, {"smiles": "Cc1cc(C)c2c(n1)sc1[nH]nnc12", "% Inhibition @ 10 uM": -1.85}, {"smiles": "CCC1=NC(c2ccc(OC)c(OC)c2)N(O)C1(C)C", "note": "(stereo not shown)", "% Inhibition @ 10 uM": 2.03}, {"smiles": "Cc1[nH]c2ccccc2c1CC/N=C1/C=C(O)CC(C)(C)C1", "% Inhibition @ 10 uM": -5.79}, {"smiles": "Cc1cc(C)n2nc(SCC(=O)NC3CCCc4ccccc43)nc2n1", "note": "(stereo not shown)", "% Inhibition @ 10 uM": -2.26}, {"smiles": "Cc1cn(CCOc2ccccc2)c(=O)n(Cc2ccccc2)c1=O", "% Inhibition @ 10 uM": 0.883}, {"smiles": "CCN(CC)CCCNc1ncnc2onc(-c3ccc(Cl)cc3)c12", "% Inhibition @ 10 uM": 2.74}, {"smiles": "C=CCn1c(SCCC)nc2c1c(=O)n(C)c(=O)n2C", "% Inhibition @ 10 uM": 4.11}, {"smiles": "COc1ccccc1-c1cc(C(=O)N2CCCCCC2)no1", "% Inhibition @ 10 uM": -3.36}, {"smiles": "CCOc1ccc(C(=O)NC(CC(C)C)C(=O)NCC#N)cc1", "note": "(stereo not shown)", "% Inhibition @ 10 uM": -12}, {"smiles": "Cc1cccc(N2CCN(CC(O)COc3ccc(Cl)cc3)CC2)c1", "note": "(stereo not shown)", "% Inhibition @ 10 uM": -1.22}, {"smiles": "O=C1CC(c2ccccc2)=Nc2cc3ccccc3cc2N1", "% Inhibition @ 10 uM": -0.0217}, {"smiles": "NC(N)=NCCCC(N)C(=O)NC(Cc1ccccc1)C(=O)O", "note": "(stereo not shown)", "% Inhibition @ 10 uM": 3.51}, {"smiles": "COc1cc(CN2CCN(c3ccc(C(C)=O)cc3)CC2)cc(OC)c1", "% Inhibition @ 10 uM": -3.15}, {"smiles": "CCCN1C(=O)/C(=C/c2ccco2)S/C1=N/c1ccc(OC)cc1", "% Inhibition @ 10 uM": -10.7}, {"smiles": "Cc1ccc(CCNC(=O)C2CCN(C(=O)c3cc4sccc4n3C)CC2)cc1", "% Inhibition @ 10 uM": -5.19}, {"smiles": "Cc1ccc2onc(CNC(=O)Nc3ccc(Cl)cn3)c2c1", "% Inhibition @ 10 uM": -5.54}, {"smiles": "COc1ccc(C(=O)Nc2c(Cl)cc(Cl)cc2C(=O)NCc2cccnc2)cc1", "% Inhibition @ 10 uM": 1.15}, {"smiles": "N#CC1=C(N)Oc2cc(N)ccc2C1c1ccc(O)cc1", "note": "(stereo not shown)", "% Inhibition @ 10 uM": -3.13}, {"smiles": "Cc1ccc(CCN2CC(C(=O)NCCCN3CCC(C)CC3)CC2=O)cc1", "note": "(stereo not shown)", "% Inhibition @ 10 uM": 1.62}, {"smiles": "O=C(c1ccncc1)N1CCN(Cc2ccc3c(c2)OCO3)CC1", "% Inhibition @ 10 uM": 0.611}, {"smiles": "CN1CCN(C(=O)c2ccc(CNS(=O)(=O)c3cccc(Cl)c3)cc2)CC1", "% Inhibition @ 10 uM": 0.214}, {"smiles": "Sc1nnc(-c2ccco2)n1-c1ccccc1", "% Inhibition @ 10 uM": 10.4}]}]}
